The text below walks through data of the supplement of paper PMC9513381.

Recombinant human monoclonal antibodies (heavy:light variable regions). ELISA EC50 on the named antigen, from 10 µg/ml down; IC50 / IC90 against spike pseudovirus on 293T-ACE2 cells, 48 h; lower = stronger. Calls: IC50 above 1,000 ng/ml = non-neutralizing; EC50 above 1,000 ng/ml = non-binder. The source prints 1000 for neutralization that was not reached; it is given as >1000 ng/ml. Only binders of the Wuhan-Hu-1 domain have neutralization values. Bounds are passed on as bounds.

B1: B1090 (protein)
chain 1: EVQLVESGGGLVQPGGSLRLSCAASGFTFSTYSMNWVRQAPGKGLEWLSYISSGSSTIKYADSVKGRLTISRDNAKNSLFLQMNSLRDEDTAVYYCARVQIRSGYYYYYGMDVWGQGTTVTVSS
chain 2: QSVLTQPRSVSGSPGQSVTISCTGTSSDIGSYDYVSWYQQHPGTAPKLMIYDVSKRPSGVPDRFSGSKSGNTASLTISGLQTEDESDYYCCSYAGIWLFGGGTKLTVL
B2: B1092 (protein)
chain 1: EVQLVESGGGLVQPGRSLRLSCAASGFTFHDYAIHWVRQVPGKGLEWVSGISWNSDDLGYADSVRGRFTISRDNAKNSVYLQMNSLRAEDTAIYYCAKDHILGAGTGWEKRENNFDPWGQGTLVIVSS
chain 2: DIQMTQSPSSLSASVGDRVTITCRASQSIRNYLNWYQQKPGKAPKLLIYGASTLQSGVPARFSGSGSGTDFTLTISSLQPEDLATYYCQQTYEIPPWTFGQGTKVEIK
B3: B1093 (protein)
chain 1: EVQLVESGGGLVQPGRSLRLSCAASGFTFHDYAIHWVRQVPGKGLEWVSGISWNSDDLGYADSVRGRFTISRDNAKNSVYLQMNSLRAEDTAIYYCAKDHILGAGTGWEKRENNFDPWGQGTLVIVSS
chain 2: DIQMTQSPSTLSASVGDRVTITCRASQSVSSWLAWYQQKPGKAPKLLIYKASNLQSGVPSRFSGSGSGTEFTLTISSLQPDDFATYYCQQYNTYPWMFGQGTKVEIK
B4: B1088 (protein)
chain 1: EVQLVQSGAEVKKPGESLKISCKGSGYSFTNYWIAWVRQMPGKGLEWMGIIYPGDSDTRYSPSFQGQITFSADKSISTAYLQWSSLKASDTAMYYCARLYPQSYYYDSSGYYYFDYWGQGTLVTVSS
chain 2: SYVLTQPPSVSVSPGQTARITCSGDALPKPYAYWYQQKPGQAPVLVIYKDSERPSGIPERFSGSSSGTTVTLTISGVQAEDEADYYCQSADITGTYVVFGGGTKLTVL
B5: B1095 (protein)
chain 1: QVQLVQSGAEVRKPGSSVKVACKASGGNFNNSGISWVRQAPGQGLEWMGGIIPLFESEKYAQKFQGRVTITADESTSTAYMELSSLRSEDTAVYYCARGRVATRRTTVTTLFDDWGQGTLVTVSS
chain 2: DIVMTQSPDSLAVSLGERATINCKSSQSVLYSSNNKNYLAWYQQKPGQPPKLLFYWASTRESGVPDRFSGSGSGADFTLTISSLQAEDVAVYYCLQYYSSPYTFGQGTKLEIK
B6: B1096 (protein)
chain 1: EVQLVESGGGLVQPGGSLRLSCAASGFTFYTYDMHWVRQTPGKGLEWVSGIGTAGDTYYSGSVKGRFTVSRVDAKNSLYLQMDSLRAGDTAVYYCARGLCDFWSDYVSCYFDYWGQGTLVTVSS
chain 2: QSVLTQPPSVSAAPGQKVTISCSGSSSNIGNNYVSWFQQLPGTAPKLLIYDNNKRPSGIPDRFSGSKSGTSATLGITGLQTGDEADYYCGTWDSSVNAGVVFGGGTKLTVL
B7: B1103 (protein)
chain 1: QVQLVQSGAEVKKPGASVKVSCKASGYTFISHYMHWVRQAPGQGLEWMGIINPDGGSTTYAQKFQGRVTMTGDSSTSTLYMELSSLRSEDTAVYYCARDGGFIPAAEVFDIWGQGTVVTVSS
chain 2: DIQMTQSPSSLSASVGDRVTITCRASQGISNYLAWYQQKPGKVPKLLIYAASTLQSGVPSRFSGSGSGTDFTLTISSLQPEDVATYYCQKYNSAPLTFGGGTKVEIK
B8: B1086 (protein)
chain 1: QVQLVQSGAEVKKPGASVKVSCKASGYTFTSNGISWVRQAPGQGLEWMGWISVYNGNTNYAQKLQGRLTMTTDTSTSTAYMELRSLRSDDTAVYYCARAVWSSGDYGGDLFDIWGQGTMITVSS
chain 2: DIQMTQSPSSLSASVGDRVTITCQASQDISNYLNWYQQKPGKAPKLLIYDASNLESGVSSRFSGSGSGTDFTFTISSLQPEDIATYYCQQYQNLPLTFGGGTKVEIK
B9: B1097 (protein)
chain 1: QLQLQESGPGLVKPSETLSLSCTVSGVSISSRNFYWGWIRQPPGKGLEWIGSIYYSGSTFSNPSLKTRVTISVDTSKKQFSLKLSSVTAADTAVYYCARALRHFDWSRPNDYHDAFDIWGQGTMVTVSS
chain 2: EIVLTQSPATLSLSPGERATLSCRASQSVGNYLAWYQQKPGQTPRLLISDASDRATGIPARFSGSGSGTDFTLTISSLEPEDFAVYYCQQCSNWPLTFGGGTKVEIK
B10: B1098 (protein)
chain 1: QLQLQESGPGLVKPSETLSLSCTVSGVSISSRNFYWGWIRQPPGKGLEWIGSIYYSGSTFSNPSLKTRVTISVDTSKKQFSLKLSSVTAADTAVYYCARALRHFDWSRPNDYHDAFDIWGQGTMVTVSS
chain 2: QSVLTQPPSVSGAPGQRVTISCTGSSSNIGANYDVHWYQHLPGTAPKLLIYGNNNRPSGVPDRFSGSKSGTSASLAITGLRAEDEADYYCQSYDSSLSGIVFGSGTKVTVL
B11: B1100 (protein)
chain 1: EVQLVESGGGLVQPGRSLRLSCAASGFTFDDYAMHWVRQAPGKALEWVSGITWNSGTIGYADSVKGRFTISRDNAKNSLYLQMIRLRPEDTALYYCAKDITYGDKHPENYGMDVWGQGTTVTVSS
chain 2: SYVLTQPPSVSVAPGQTARMTCGGNNIGSKSVHWYQQKPGQAPVLVVYDDSDRPSGIPERFSGSNSGNTATLTISRVEAGDEADYYCQVWDSSSDLNVFGSGTKVTVL
B12: B1094 (protein)
chain 1: EVQLVESGGGLIQPGGSLRLSCTPSGFTVSGIYWGWVRQAPGKGLEWVSVLYDGGAIYYADAVKGRFTISRDNSKNTVHLQMNSLRVEDTAVYYCARRSLYVGDFGDLLYPIIWGQGTTVTVSS
chain 2: DIVMTQSPLSLPVTPGEPASMSCRSSQSLLHGNGYNYLDWYLQKPGQSPQLLIYFGSYRASGVPDRFSGSGSGTDFTLKISRVEAEDVGVYFCMQALRTPFTFGPGTEVDIK
B13: B1101 (protein)
chain 1: QVQLVQSGAEMKKPGSSVKVSCKASGGTFSSYSISWVRQAPGQGLEWMGEIMPILGIPNYAQKFQGRVTLTADQSTSTAYMDLTSLRSEDTAVYYCARVRGYSSSSSSWYFDLWGRGTLVSVSA
chain 2: QSVLTQPPSVSGAPGQRVTISCTGSNSNIGAAYDVHWYQQLPGTAPKLLMYGNNNRPSGVPDRFSGSKSDTSASLAITGLQAEDEADYYCQSYDSSLSGSVFGGGTKLTVL
B14: B1087 (protein)
chain 1: QVQLVESGGGVVQPGRSLRLSCAASGFTFSNHAMHWVRQAPGKGLEWVASITYDGSNKYYAGSVKGRFTIARDNSKNTLHLQMNSLRAEDTAVYYCARDGGSGYDYSFDGLDVWGQGTTVTVSS
chain 2: DIVMTQTPLSSPVTLGQPASISCRSSQSLVHRDGNTYLSWLQQRPGQPPRLLIYKISNRFSGVPDRFSGSGTATDFTLKISRVQAEDVGVYFCMQATHPGITFGQGTRLEIK

The first experiment concerns the target SARS-CoV-2 Wuhan-Hu-1 spike pseudovirus. Kind of experiment: pseudovirus neutralization IC50; higher = weaker neutralization. The procedure:
(§1)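 Single-round luciferase reporter pseudovirus mixed with antibody dilutions and put on 293T-ACE2 cells for 48 h; signal relative to no-antibody wells, four-parameter fit.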
Regarding B1, the “pseudovirus neutralization IC50” value was more than 1 µg/mL.
Still for that read-out and setting: the same measure for B2: more than 1 µg/mL; for B3: 0.00175 µg/mL.
The same measure, in the same setting: in the case of B4 it was 0.171 µg/mL.
Same read-out and setting: in the case of B5 it was 0.00236 µg/mL.
As to B6, the “pseudovirus neutralization IC50” value stood at 0.00454 µg/mL.
On the same count and under the same terms, in the case of B7 it was more than 1 µg/mL; in that of B8, 0.053 µg/mL; in that of B9, 0.0108 µg/mL.
Same read-out and setting: the same measure for B10: more than 1 µg/mL.
Same read-out and setting: in the case of B11 it was 0.00968 µg/mL.
Take B12: the “pseudovirus neutralization IC50” value is 0.00262 µg/mL.
On the same count and under the same terms, in the case of B13 it was 0.0828 µg/mL.
On to B14, for which the “pseudovirus neutralization IC50” value is 0.0022 µg/mL.

Another experiment shares this target. As to the kind of experiment: pseudovirus neutralization IC90; higher = weaker neutralization. The protocol:
as §1
Regarding B1, the “pseudovirus neutralization IC90” value is more than 1 µg/mL.
Still for that read-out and setting: the same measure for B2: more than 1 µg/mL.
Same read-out and setting: the same measure for B3: 0.0111 µg/mL; for B4: more than 1 µg/mL; for B5: 0.0232 µg/mL.
Turning to B6, the “pseudovirus neutralization IC90” value was determined as 0.062 µg/mL.
For B7, the “pseudovirus neutralization IC90” value was more than 1 µg/mL.
For B8, the “pseudovirus neutralization IC90” value is more than 1 µg/mL.
On the same count and under the same terms, the same measure for B9: 0.184 µg/mL; for B10: more than 1 µg/mL.
On the same count and under the same terms, the same measure for B11: 0.151 µg/mL; for B12: 0.0161 µg/mL.
Still for that read-out and setting: in the case of B13 it was 0.811 µg/mL; in that of B14, 0.0128 µg/mL.

A further experiment has as its target SARS-CoV-2 Delta (B.1.617.2) spike RBD. As to the kind of experiment: ELISA binding EC50; higher = weaker binding; ELISA of recombinant human antibody on coated antigen, from 10 µg/ml in fourfold dilutions; four-parameter fit.
On to B1, for which the “ELISA binding EC50” value turned out to be 0.0538 µg/mL.
The same measure, in the same setting: the same measure for B2: more than 1 µg/mL; for B3: 0.018 µg/mL.
Same read-out and setting: the same measure for B4: 0.149 µg/mL.
On the same count and under the same terms, in the case of B5 it was 0.0662 µg/mL; in that of B6, 0.00624 µg/mL; in that of B7, 0.757 µg/mL.
As for B8, the “ELISA binding EC50” value worked out at 0.00373 µg/mL.
The same measure, in the same setting: the same measure for B9: 0.0145 µg/mL; for B10: more than 1 µg/mL; for B11: 0.0144 µg/mL.
Same read-out and setting: in the case of B12 it was 0.0628 µg/mL; in that of B13, 0.0223 µg/mL; in that of B14, 0.00383 µg/mL.

The target of the next experiment is SARS-CoV-2 Omicron BA.1 spike protein. The description is as above.
On to B1, for which the “ELISA binding EC50” value is 0.0328 µg/mL.
Same read-out and setting: in the case of B2 it was more than 1 µg/mL.
The same measure, in the same setting: the same measure for B3: more than 1 µg/mL; for B4: 0.101 µg/mL.
Still for that read-out and setting: the same measure for B5: more than 1 µg/mL.
With B6, the “ELISA binding EC50” value is more than 1 µg/mL.
On the same count and under the same terms, in the case of B7 it was 1.11 µg/mL; in that of B8, 0.036 µg/mL.
For B9, the “ELISA binding EC50” value was 0.0265 µg/mL.
The same measure, in the same setting: in the case of B10 it was more than 1 µg/mL; in that of B11, 0.00347 µg/mL.
Same read-out and setting: the same measure for B12: 0.0549 µg/mL.
For the molecule B13, the “ELISA binding EC50” value amounted to 0.00393 µg/mL.
The same measure, in the same setting: the same measure for B14: more than 1 µg/mL.

In a further experiment the target is SARS-CoV-2 Wuhan-Hu-1 spike receptor-binding domain. Described as above.
For B1, the “ELISA binding EC50” value was determined as 0.00028 µg/mL.
The same measure, in the same setting: the same measure for B2: 0.654 µg/mL; for B3: 0.0022 µg/mL; for B4: 0.00289 µg/mL.
The same measure, in the same setting: in the case of B5 it was 0.00181 µg/mL; in that of B6, 0.00187 µg/mL; in that of B7, 0.00617 µg/mL.
The same measure, in the same setting: in the case of B8 it was 0.00219 µg/mL.
For the molecule B9, the “ELISA binding EC50” value worked out at 0.00281 µg/mL.
With B10, the “ELISA binding EC50” value is 0.00878 µg/mL.
The same measure, in the same setting: the same measure for B11: 0.00192 µg/mL; for B12: 0.00168 µg/mL; for B13: 0.00273 µg/mL.
The same measure, in the same setting: the same measure for B14: 0.00212 µg/mL.
